Laboratory results from PubChem BioAssay AID624255 (Broad Institute, 2012).
Values joined by “and” are separate entries in the source; they are usually repeats but may differ in a detail not shown here. Equal entries are not always repeated. Among all 77,000 compounds or so, about 4,600 (6%) were called active. Inconclusive results, whose numbers are uncertain, are shown with a selection of clear calls.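 How the source made its calls: active means mean inhibition above about 93%, with at least 55% of replicates each passing it (limit read from the data, passing the limit was not always enough); inconclusive means only one of those two conditions holds; inactive means neither condition holds.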

Assay: T. cruzi intracellular proliferation inhibitors, primary screen, cell-based, beta-gal Tulahuen parasites, NIH3T3 host, luminescence (AID 624255)
Conditions: T. cruzi beta-gal in NIH3T3, GalScreen luminescence, 90 h; at 8.34 µM; active compounds read high

| Compound | inhibition |
| --- | --- |
| C[C@@H]1CCCCO[C@@H](CN(C)CC2CCCCC2)[C@H](C)CN([C@@H](C)CO)C(=O)c2cc(NC(=O)Nc3ccc(C(F)(F)F)cc3)ccc2O1 | inconclusive: 87.3% |
| COc1ccccc1S(=O)(=O)N1CC[C@@H]2[C@@H](CO)Nc3ccc(-c4ccccc4F)cc3[C@@H]21 | inconclusive: 98.2% |
| COCC(=O)Nc1ccc2c(c1)C(=O)N(C)C[C@@H](OC)[C@H](C)CN[C@H](C)CO2 | inactive: -49.8% |
| COc1ccccc1S(=O)(=O)N(C)C[C@@H]1Oc2cc(C#CCC(C)C)ccc2S(=O)(=O)N([C@@H](C)CO)C[C@H]1C | inconclusive: 92.2% |
| C[C@@H]1CN([C@@H](C)CO)C(=O)c2cc(C3=CCCCC3)cnc2O[C@H]1CN(C)C(=O)Cc1ccccc1 | inconclusive: 94.8% |
| Cc1noc(C)c1NC(=O)Nc1ccc2c(c1)C(=O)N([C@@H](C)CO)C[C@@H](C)[C@H](CN(C)S(=O)(=O)c1ccc(Cl)cc1)O2 | inactive: 38.5% |
| C[C@H]1CCCCO[C@H](CN(C)Cc2ccc(C(F)(F)F)cc2)[C@@H](C)CN([C@@H](C)CO)C(=O)c2cc(NC(=O)Nc3cccc4ccccc34)ccc2O1 | inconclusive: 123% |
| COc1ccc(C#Cc2ccc3c(c2)O[C@@H](CN(C)C(=O)NC2CCCCC2)[C@@H](C)CN([C@@H](C)CO)S3(=O)=O)cc1 | inconclusive: 98.9% |
| C[C@@H]1CCCCO[C@@H](CN(C)C(=O)Nc2ccc(C(F)(F)F)cc2)[C@H](C)CN([C@H](C)CO)C(=O)c2cc(NS(=O)(=O)c3ccc(Cl)cc3)ccc2O1 | inconclusive: 95.5% |
| COc1ccc(NC(=O)N(C)C[C@H]2Oc3c(NC(=O)NC(C)C)cccc3C(=O)N([C@H](C)CO)C[C@H]2C)cc1 | inactive: 33.5% |
| COc1cccc(-c2cnc3c(c2)C(=O)N([C@H](C)CO)C[C@H](C)[C@H](CN(C)Cc2cccc(C(F)(F)F)c2)O3)c1 | inconclusive: 108% |
| CCS(=O)(=O)N1CCCCN2[C@@H](CO)[C@@H](c3ccc(-c4ccccc4C)cc3)[C@@H]2C1 | inconclusive: 96.2% |
| COc1ccc(S(=O)(=O)N(C)C[C@@H]2Oc3cc(C#CC4CC4)ccc3S(=O)(=O)N([C@@H](C)CO)C[C@H]2C)cc1 | active: 112% |
| COc1ccc(-c2ccc([C@H]3[C@H](C#N)N(C(=O)NC4CCCCC4)[C@H]3CO)cc2)cc1 | active: 101% |
| CN(C)C(=O)[C@H]1[C@H](CO)[C@H]2Cn3c(ccc(C4=CCCCC4)c3=O)[C@@H]1N2Cc1ccncc1 | inactive: 1.97% |
| Cc1ccc(S(=O)(=O)Nc2ccc3c(c2)C(=O)N([C@H](C)CO)C[C@H](C)[C@H](CN(C)S(=O)(=O)c2ccc(Cl)cc2)OCCCC[C@@H](C)O3)cc1 | inconclusive: 95.6% |
| COc1ccc(NC(=O)Nc2ccc3c(c2)C(=O)N([C@@H](C)CO)C[C@H](C)[C@@H](CN(C)Cc2ccc4c(c2)OCO4)OCCCC[C@H](C)O3)cc1 | inconclusive: 96.4% |
| CN1C(=O)c2cc(NC(=O)c3cccc(F)c3)ccc2OC[C@@H]2O[C@H](CC(=O)NCC3CCCCC3)CC[C@@H]21 | active: 111% and active: 117% |
| COc1ccc(CN(C)C[C@@H]2Oc3ccc(NS(=O)(=O)c4ccc(OC)cc4)cc3CC(=O)N([C@H](C)CO)C[C@H]2C)cc1 | active: 105% |

| Compound | inhibition |
| --- | --- |
| CN1c2ccc(-c3ccccc3F)cc2[C@@H]2[C@@H](CCN2C(=O)c2ccccn2)[C@H]1CO | active: 116% |
| C[C@@H]1CN([C@@H](C)CO)C(=O)c2cc(NS(=O)(=O)c3ccc(F)cc3)ccc2O[C@@H](C)CCCCO[C@@H]1CN(C)S(=O)(=O)c1ccc(Cl)cc1 | inconclusive: 106% |
| CS(=O)(=O)N1CCCCN2[C@H](CO)[C@@H](c3ccc(C#Cc4ccccn4)cc3)[C@H]2C1 | inconclusive: 101% |
| O=C(Nc1ccccc1)N[C@H]1CC[C@@H](CCNC(=O)c2ccccc2F)O[C@@H]1CO | inactive: 21.8% |
| COc1ccccc1CNC(=O)C[C@H]1C[C@H]2c3cc(NC(=O)Cc4ccncc4)ccc3O[C@H]2[C@@H](CO)O1 | inactive: -26.6% |
| CNC[C@H]1Oc2cc(C#Cc3cccc(F)c3)ccc2S(=O)(=O)N([C@H](C)CO)C[C@@H]1C | inconclusive: 101% |
| C[C@@H]1CN([C@@H](C)CO)C(=O)c2cc(-c3ccccc3F)cnc2O[C@H]1CN(C)Cc1ccc(F)cc1 | inactive: 60.5% |
| C[C@@H]1CN([C@@H](C)CO)C(=O)c2c(c3ccccc3n2C)-c2ccccc2CO[C@H]1CN(C)C | inconclusive: 106% |
| C[C@@H]1CN([C@@H](C)CO)C(=O)c2cc(NC(=O)Nc3ccc(C(F)(F)F)cc3)ccc2O[C@@H]1CN(C)Cc1ccc(C(=O)Nc2ccccc2N)cc1 | inactive: -11.1% |
| O=C(Nc1cccc(F)c1)N1CCCCN2[C@@H](CO)[C@H](c3ccc(C#CC4CC4)cc3)[C@@H]2C1 | inconclusive: 104% |
| C[C@@H]1CN([C@H](C)CO)C(=O)Cc2cc(NC(=O)Cc3cn(C)c4ccccc34)ccc2O[C@H]1CN(C)Cc1ccc(Cl)c(Cl)c1 | inconclusive: 96.4% |
| O=C(NCc1ccc2c(c1)OCO2)[C@@H]1[C@@H](CO)[C@@H]2Cn3c(cccc3=O)[C@H]1N2Cc1cncnc1 | inactive: 18.3% |
| C[C@H](CO)N1C[C@H](C)[C@H](CN(C)S(=O)(=O)c2ccc(F)cc2)Oc2ccc(NC(=O)c3ccncc3)cc2CC1=O | inactive: 12.9% |
| COc1ccc(C#Cc2ccc3c(c2)O[C@H](CN(C)C(=O)NC2CCCCC2)[C@@H](C)CN([C@@H](C)CO)S3(=O)=O)cc1 | inconclusive: 113% |
| COCC(=O)N1CC[C@@H]2[C@@H](CO)N(C)c3ccc(-c4cccc(F)c4)cc3[C@@H]21 | inconclusive: 96.2% |
| CCCN(C)C[C@H]1Oc2ncc(C#CC3CC3)cc2C(=O)N([C@H](C)CO)C[C@@H]1C | inactive: 58.4% |
| Cc1noc(C)c1NC(=O)N(C)C[C@H]1Oc2ccc(NC(=O)C3CCCCC3)cc2C(=O)N([C@H](C)CO)C[C@H]1C | inactive: 0.0725% |
| COc1ccc(-c2ccc3n(c2=O)C[C@H]2[C@H](CO)[C@@H](C(=O)N(C)C)N(CC4CC4)[C@@H]32)cc1 | active: 103% |
| C[C@H](CO)N1C[C@H](C)[C@H](CN(C)Cc2ccc(Oc3ccccc3)cc2)Oc2ccc(NC(=O)Cc3cn(C)c4ccccc34)cc2C1=O | inconclusive: 93.8% |

| Compound | inhibition |
| --- | --- |
| Cc1noc(C)c1S(=O)(=O)N(C)C[C@H]1OCCCC[C@@H](C)Oc2ccc(NC(=O)Nc3ccc(C(F)(F)F)cc3)cc2C(=O)N([C@@H](C)CO)C[C@@H]1C | active: 99.5% |
| C[C@H](CO)N1C[C@H](C)[C@@H](CN(C)C(=O)Nc2ccc(C(F)(F)F)cc2)OCCCC[C@H](C)Oc2ccc(NS(=O)(=O)c3ccccc3)cc2C1=O | inconclusive: 116% |
| C[C@H]1CN([C@@H](C)CO)C(=O)c2cccc(NC(=O)NC3CCCCC3)c2O[C@H]1CN(C)Cc1ccc(C(=O)Nc2ccccc2N)cc1 | inconclusive: 94.5% |
| C[C@@H]1CN([C@@H](C)CO)C(=O)c2cc(NC(=O)C3CCCCC3)ccc2O[C@@H](C)CCCCO[C@@H]1CN(C)Cc1ccc(C(F)(F)F)cc1 | inconclusive: 124% |
| C[C@H](CO)N1C[C@H](C)[C@H](CN(C)Cc2cncnc2)Oc2cc(-c3ccncc3)ccc2S1(=O)=O | inconclusive: 96.8% |
| CCCC#Cc1ccc([C@H]2[C@@H](CO)N3CCCCN(C(=O)NC4CCCC4)C[C@H]23)cc1 | inconclusive: 122% |
| CS(=O)(=O)N1[C@@H](C#N)[C@H](c2ccc(C#CC3CCCC3)cc2)[C@@H]1CO | inconclusive: 95.1% |
| Cc1noc(C)c1S(=O)(=O)N(C)C[C@@H]1OCCCC[C@@H](C)Oc2ccc(NS(=O)(=O)c3ccc(F)cc3)cc2C(=O)N([C@H](C)CO)C[C@H]1C | inconclusive: 95.4% |
| C[C@@H]1CN([C@@H](C)CO)S(=O)(=O)c2ccc(C#Cc3ccccc3F)cc2O[C@@H]1CN(C)C(=O)Cc1cccnc1 | inconclusive: 81.8% |
| C[C@H]1CCCCO[C@@H](CN(C)Cc2ccc(C(F)(F)F)cc2)[C@@H](C)CN([C@@H](C)CO)C(=O)c2cc(NC(=O)Nc3ccc(C(F)(F)F)cc3)ccc2O1 | inconclusive: 91.8% |
| OC[C@@H]1[C@@H](c2ccc(C#Cc3ccccc3)cc2)[C@@H]2CN(CC3CCOCC3)CCCCN12 | inconclusive: 96.6% |
| COc1cccc(S(=O)(=O)N2C[C@H](O)COC[C@H]3O[C@@H](CC(=O)N4CCOCC4)CC[C@@H]32)c1 | inconclusive: 95.7% |
| C[C@H](CO)N1C[C@H](C)[C@H](CN(C)Cc2ccc(Oc3ccccc3)cc2)Oc2c(NC(=O)c3ccc(-c4nccs4)cc3)cccc2C1=O | active: 103% |
| COc1ccccc1S(=O)(=O)N[C@H]1CC[C@H](CC(=O)N2CCN(C)CC2)O[C@H]1CO | inactive: 0.998% |
| C[C@H]1CCCCO[C@@H](CN(C)C(=O)CCCN(C)C)[C@@H](C)CN([C@@H](C)CO)C(=O)c2cc(NS(=O)(=O)c3ccccc3)ccc2O1 | inactive: 44% |
| CO[C@H]1CN(C)C(=O)c2cc(NS(=O)(=O)c3cccc(F)c3)ccc2OC[C@@H](C)N(Cc2cc(F)ccc2F)C[C@@H]1C | active: 112% |
| O=C(NC1CCCC1)[C@@H]1[C@@H](CO)[C@@H]2Cn3c(cccc3=O)[C@H]1N2Cc1cc(F)ccc1F | inactive: 54.6% |
| CO[C@@H]1CN(C)C(=O)c2cc(NC(=O)c3ccc(F)cc3)ccc2OC[C@@H](C)N(C(=O)CN(C)C)C[C@@H]1C | inactive: -43.5% |
